Test results reported in PubChem BioAssay AID651820 (National Center for Advancing Translational Sciences (NCATS), 2012).
The campaign covered roughly 340,000 compounds. About 12,000 (3.5%) were called active. Inconclusive results, whose numbers are uncertain, are shown with a selection of clear calls. The call rests on the fitted dose curve; in most records, active means well fitted inhibition curve with a large enough effect; inconclusive means small, poorly fitted or top-dose-only effect, or another doubt; inactive means no such curve, though single readings can be large or run the other way. Potencies of inconclusive entries are left out as doubtful fits.

Assay: qHTS Assay for Inhibitors of Hepatitis C Virus (HCV)
Conditions: Huh7.5.1 HCVcc-Cre (HCVcc is cell-culture hepatitis C virus) infection, luciferase reporter, 44 h; activity change, negative = inhibition: at 41.8 µM (top of the series)
Method in brief: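 Whole-lifecycle infectious HCVcc-Cre system; cells 1,000/well, compound then virus (~0.5 moi) added 4 h after plating, 44 h culture. Luciferase read 15 sec following 15 min substrate incubation, room temp.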
On the % scale 0 is the no-effect control and ±100 the full control effect; potency means the concentration at half of the fitted maximal effect; tags describe the fitted curve by direction and shape.

Structure (SMILES) | Potency | activity change, negative = inhibition
O=C(Nc1ccc(Cl)cn1)Nc1ccccc1Cl | inconclusive [inhibitor, single point] | –
CCCc1nn(C)c2c(=O)[nH]c(-c3cc(S(=O)(=O)Nc4ccc(NC(C)=O)cc4)ccc3OCC)nc12 | inconclusive [inhibitor, single point] | –
O=C(Nc1ccccc1)N1CCCC(c2nc(-c3ccc(F)cc3)no2)C1 (centres undefined) | inconclusive [inhibitor, single point] | –
O=C(N/N=C/c1ccc[nH]1)c1ccc(COc2cccc3cccnc23)cc1 | active: 0.794 µM | –
CC1CCCN(S(=O)(=O)c2ccc(NC(=O)Cc3ccc(S(=O)(=O)N4CCOCC4)s3)cc2)C1 (centres undefined) | inconclusive [inhibitor, single point] | –
CCOCCCNC(=O)c1cccc(NC(=O)C2=C(C)OCCS2)c1 | – | inactive: -3.28%
O=C1C(=O)c2ccccc2C(O)=C1CCCCl | inconclusive [inhibitor, single point] | –
Cc1ccc(-c2nc(-c3ccccn3)no2)cc1 | inconclusive [inhibitor, single point] | –
Cc1ccc2nc(N(CCCN(C)C)C(=O)c3ccco3)sc2c1 | active: 10 µM | –
CC(C)(C)C(=O)Nc1ccc(C(=O)CN2C(=O)NC3(CCOc4ccccc43)C2=O)cc1 (centres undefined) | inconclusive [inhibitor, partial curve] | –
COc1ccc(NC(=S)NNc2ccc(C(=O)O)cc2)cc1 | – | inactive: 2.81%
COc1cccc(Cn2cnc3c(NS(=O)(=O)c4ccc(Cl)cc4Cl)c(C)c(C)cc32)c1 | inconclusive [inhibitor, single point] | –
COc1ccc(NC(=O)CN2C(=O)CSc3ccc(S(=O)(=O)N4CCC(C)CC4)cc32)cc1 | inconclusive [inhibitor, single point] | –
O=C(Nc1cccc(C(=O)NC2CC2)c1)c1ccc(Cl)c(S(=O)(=O)N2CCOCC2)c1 | inconclusive [inhibitor, full curve] | –
O=C(NCC1COCCO1)c1ccc2nc(Cc3cccc(Cl)c3)oc2c1 (centres undefined) | – | inactive: 5.93%
Cc1cc(C)n(-c2cccc(Cl)c2C#N)n1 | inconclusive [inhibitor, partial curve] | –
CC(C)CNC(=O)COC(=O)C1c2ccccc2Oc2ccccc21 | – | inactive: -1.5%
Cc1ccc(CN2CCC(CNC(=O)C3CCCN(c4ncnc5c4nc4n5CCCCC4)C3)CC2)cc1 (centres undefined) | inconclusive [inhibitor, single point] | –
Cc1ccc(Cn2nc(C)c(NC(=O)CSc3nc4c(c(C(F)(F)F)n3)CCc3ccccc3-4)c2C)cc1 | inconclusive [inhibitor, partial curve] | –
CCN(CCNC(=O)Cn1c(=O)sc2ccccc21)c1ccccc1 | inconclusive [inhibitor, partial curve] | –
CC(=O)Cc1nsc(NC(=O)c2ccc(COc3ccccc3Cl)o2)n1 | – | inactive: 10.4%
CCOC(=O)c1nc(Nc2ccccc2)c2ccccc2n1 | inconclusive [inhibitor, single point] | –
CCC(CC)C(=O)Nc1ccc(Cl)c(Cl)c1 | inconclusive [inhibitor, partial curve] | –

Structure (SMILES) | Potency | activity change, negative = inhibition
Cc1cc(-c2ccccc2)n(-c2ccc(C(=O)NC(C)C)cc2)n1 | inconclusive [inhibitor, single point] | –
O=C(c1ccc(NC(=S)NCc2ccco2)cc1)N1CCOCC1 | inconclusive [inhibitor, single point] | –
Cc1cccc(Cn2cc(/C=C/[N+](=O)[O-])c3ccccc32)c1 | inconclusive [inhibitor, single point] | –
COC(=O)Nc1ccc2c(c1)N(C(=O)CCN1CCN3CCCC3C1)c1ccccc1S2 (centres undefined) | inconclusive [inhibitor, single point] | –
O=C(N[C@@H]1C/C=C\C[C@H](CC(=O)N(CCO)Cc2ccccc2)C(=O)N[C@@H](Cc2ccccc2)COC1=O)OCC1c2ccccc2-c2ccccc21 | – | inactive: -18.2%
Cc1ccccc1N1CC(C(=O)O)CC1=O (centres undefined) | inconclusive [inhibitor, single point] | –
FC(F)(F)c1cnc(-c2cnc(-c3ccncc3)nc2)c(Cl)c1 | – | inactive: -28.7%
CC(C)c1ccc(NC(=O)C2C3C=CC4(O3)C2C(=O)N(CCCN2CCOCC2)C4C(=O)NC2CCCCC2)cc1 (centres undefined) | inconclusive [inhibitor, single point] | –
OCc1cc(Br)ccc1OCc1nc2ccccc2s1 | inconclusive [inhibitor, single point] | –
O=C(c1ccc([N+](=O)[O-])cc1)N1CCN=C1SCc1ccccc1 | inconclusive [inhibitor, single point] | –
COc1ccccc1/C=C/CN1CCCC(CCC(=O)NCc2ccc(F)c(F)c2)C1 (centres undefined) | inconclusive [inhibitor, single point] | –
COc1ccc2c(c1)c1ccc3c(c1n2C)C(=O)C=CC3=O | inconclusive [inhibitor, partial curve] | –
Cn1nnnc1SCC(=O)Nc1cccc([N+](=O)[O-])c1 | – | inactive: -3.71%
Cc1cc(=O)[nH]c(-c2ccccc2)n1 | – | inactive: 5.11%
CN1CCN(C(=O)CCN2C(=O)/C(=C/c3cccc(Br)c3)SC2=S)CC1 | inconclusive [inhibitor, single point] | –
CCOc1ccc(NC(=O)CN(C)C(=O)CSCc2ccc(C)cc2)cc1OCC | – | inactive: -14.3%
Cc1ccc(-n2ncc(C(=O)NCc3ccc4c(c3)OCO4)c2NC(=O)c2ccco2)cc1C | inconclusive [inhibitor, partial curve] | –
O=C(C1CC(=O)N(c2ccccc2)C1)N1CCN(c2ccccc2)CC1 (centres undefined) | – | inactive: 14.6%
O=C(NCCC1=CCCCC1)c1cc(-c2ccccn2)nc2ccccc12 | – | inactive: 0.218%
COCCCNCCCOc1ccc(C(C)(C)c2ccccc2)cc1 | inconclusive [inhibitor, partial curve] | –
Clc1ccc(Cl)c(OCc2cc(-c3ccccc3Cl)on2)c1 | inconclusive [inhibitor, single point] | –
CCOC(=O)c1sc2nc3c(SCCC#N)cc(C(=O)c4cc(F)ccc4O)cn3c(=O)c2c1C | – | inactive: -11.7%
O=C(Nc1ccc2c(c1)CCC2)c1ccc(F)cc1 | inconclusive [inhibitor, partial curve] | –

Structure (SMILES) | Potency | activity change, negative = inhibition
Cc1ccc(-n2c(SCn3nnc4ccccc4c3=O)nnc2-c2cccnc2)c(C)c1 | – | inactive: -11.4%
CC(C)C(=O)c1cn(Cc2ccccc2C#N)c2ccccc12 | inconclusive [inhibitor, single point] | –
CC(=NNc1ccc2ccccc2n1)c1ccccc1O | inconclusive [inhibitor, single point] | –
COc1cc(C(=O)NCCc2ccc(S(=O)(=O)N3CCCC3)cc2)cc(OC)c1OC | inconclusive [inhibitor, single point] | –
O=C1N[C@H](Cc2c[nH]c3ccccc23)COC(=O)[C@H](Cc2ccc(F)cc2)C/C=C\C[C@H]1CC(=O)N(CCO)Cc1ccccc1 | inconclusive [inhibitor, single point] | –
CCCn1c(=O)c(C(=O)NCc2ccccc2)c(O)c2ccccc21 | inconclusive [inhibitor, partial curve] | –
Fc1ccc2[nH]c3c(NCc4ccccc4)ncnc3c2c1 | active: 7.94 µM | –
Cc1ccc(NC(=O)C(=O)NCC2CCCN2S(=O)(=O)c2cccs2)c(C)c1 (centres undefined) | inconclusive [inhibitor, single point] | –
Cc1ccc(/C=N/N2C(=S)SC(C)(C)C2N(O)C(=O)Nc2ccc([N+](=O)[O-])cc2)cc1 (centres undefined) | active: 11.2 µM | –
Cc1ccc(NC(=O)CCCC(=O)OC(C)C(=O)c2ccccc2)cc1 (centres undefined) | inconclusive [inhibitor, single point] | –
CCCC(=O)Nc1ccccc1NC(=O)c1ccc(OC)cc1 | – | inactive: 7.88%
O=C(CCCN1C(=O)/C(=C/c2cccc(Br)c2)SC1=S)Nc1cccnc1 | inconclusive [inhibitor, single point] | –
CCCCN=C1CC(C)(C)CC(=O)/C1=C(/O)CCC | inconclusive [inhibitor, partial curve, poor fit] | –
CC(=O)N1CCCc2cc(S(=O)(=O)CCC(=O)N3CCN(c4cccc(C)c4)C(C)C3)ccc21 (centres undefined) | inconclusive [inhibitor, partial curve] | –
O=C(NCc1ccccc1)C1CCN(c2nc(-c3ccccc3)nc3c2CCC3)CC1 | inconclusive [inhibitor, single point] | –
COc1cc(/C=N\Nc2nc3ccccc3[nH]2)cc(OC)c1OC | inconclusive [inhibitor, single point] | –
Cc1[nH]c2ccccc2c1C(=O)C(=O)N1CCOCC1 | – | inactive: 10.7%
COc1ccc(S(=O)(=O)N2CCN(C(=O)c3ccc(C)o3)CC2)cc1 | – | inactive: 13.9%
CCn1cc(CN2CCCC(C(=O)Nc3cccc(-n4cccn4)c3)C2)c(C)n1 (centres undefined) | – | inactive: 14.8%
CC1CCCN(C(=O)c2ccccc2OC2CCN(S(C)(=O)=O)CC2)C1 (centres undefined) | – | inactive: 19.8%
O=C(O)c1ccc(N=Cc2c(O)ccc3oc4c(c23)CCCC4)cc1 | inconclusive [inhibitor, single point] | –
COc1cc(/C=C/C(=O)NC2CCCCC2)cc(OC)c1OC | inconclusive [inhibitor, partial curve] | –
CCOc1cc(N2CCOCC2)c(OCC)cc1NC(=O)c1ccccc1 | inconclusive [inhibitor, single point] | –
